# Laboratory results as given in the supplement of paper PMC8728848.
# The list shows a part of the results.
# Tests used:
# Test in all cases: glycan array binding signal (z-score within array); higher = stronger binding
# Conditions in all cases: glycan notation: IUPAC condensed, linker removed
# [1] = molecular target: Fuc(a1-2)[GalNAc(a1-3)]Gal(b1-3)GlcNAc(b1-3)GalNAc
# In short: (§1)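 Glycan array data came from 3228 arrays in the Consortium for Functional Glycomics database, and only arrays with an available protein sequence were kept. Glycan names were put into IUPAC-condensed notation, and columns mapping to the same glycan were averaged. The binding signal is a within-array Z-score, averaged across arrays of one protein sequence run at different concentrations or buffers and across linkers. A negative Z-score can be read as non-binding.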
# [2] = molecular target: Fuc(a1-2)[GalNAc(a1-3)]Gal(b1-3)GlcNAc(b1-6)GalNAc
# In short: as §1
# [3] = molecular target: Fuc(a1-2)[GalNAc(a1-3)]Gal(b1-4)Glc
# In short: as §1
# [4] = molecular target: Fuc(a1-2)[GalNAc(a1-3)]Gal(b1-4)GlcNAc
# In short: as §1
# [5] = molecular target: Fuc(a1-2)[GalNAc(a1-3)]Gal(b1-4)GlcNAc(b1-2)Man
# In short: as §1
# [6] = molecular target: Fuc(a1-2)[GalNAc(a1-3)]Gal(b1-4)GlcNAc(b1-2)Man(a1-3)[Fuc(a1-2)[GalNAc(a1-3)]Gal(b1-4)GlcNAc(b1-2)Man(a1-6)]Man(b1-4)GlcNAc(b1-4)GlcNAc
# In short: as §1
# [7] = molecular target: Fuc(a1-2)[GalNAc(a1-3)]Gal(b1-4)GlcNAc(b1-2)Man(a1-3)[Fuc(a1-2)[GalNAc(a1-3)]Gal(b1-4)GlcNAc(b1-2)Man(a1-6)]Man(b1-4)GlcNAc(b1-4)[Fuc(a1-6)]GlcNAc
# In short: as §1
# [8] = molecular target: Fuc(a1-2)[GalNAc(a1-3)]Gal(b1-4)GlcNAc(b1-3)Gal(b1-4)GlcNAc
# In short: as §1
# [9] = molecular target: Fuc(a1-2)[GalNAc(a1-3)]Gal(b1-4)GlcNAc(b1-3)Gal(b1-4)GlcNAc(b1-3)Gal(b1-4)GlcNAc
# In short: as §1
# [10] = molecular target: Fuc(a1-2)[GalNAc(a1-3)]Gal(b1-4)GlcNAc(b1-3)GalNAc
# In short: as §1
# [11] = molecular target: Fuc(a1-2)[GalNAc(a1-3)]Gal(b1-4)GlcNAc(b1-3)[Fuc(a1-2)[GalNAc(a1-3)]Gal(b1-4)GlcNAc(b1-6)]GalNAc
# In short: as §1
# [12] = molecular target: Fuc(a1-2)[GalNAc(a1-3)]Gal(b1-4)GlcNAc(b1-6)GalNAc
# In short: as §1
# [13] = molecular target: Fuc(a1-2)[GalNAc(a1-3)]Gal(b1-4)[Fuc(a1-3)]GlcNAc
# In short: as §1
# [14] = molecular target: Fuc(a1-2)[GalNAc(a1-3)]Gal(b1-4)[Fuc(a1-3)]GlcNAc(b1-3)GalNAc
# In short: as §1
# [15] = molecular target: Fuc(a1-2)[GalNAc(a1-4)]Gal(b1-4)GlcNAc
# In short: as §1
# [16] = molecular target: Fuc(a1-2)[GalNAc(b1-3)]Gal
# In short: as §1
# Fuc(a1-3)GlcNAc = molecular target: Fuc(a1-3)GlcNAc
# In short: as §1
# [17] = molecular target: Fuc(a1-3)[Gal(b1-4)]Glc6S
# In short: as §1
# [18] = molecular target: Fuc(a1-3)[Gal(b1-4)]GlcNAc
# In short: as §1
# [19] = molecular target: Fuc(a1-3)[Gal(b1-4)]GlcNAc(b1-2)Man
# In short: as §1
# [20] = molecular target: Fuc(a1-3)[Gal(b1-4)]GlcNAc(b1-2)Man(a1-3)[Fuc(a1-3)[Gal(b1-4)]GlcNAc(b1-2)Man(a1-6)]Man(b1-4)GlcNAc(b1-4)GlcNAc
# In short: as §1
# [21] = molecular target: Fuc(a1-3)[Gal(b1-4)]GlcNAc(b1-2)Man(a1-3)[Fuc(a1-3)[Gal(b1-4)]GlcNAc(b1-2)Man(a1-6)]Man(b1-4)GlcNAc(b1-4)[Fuc(a1-6)]GlcNAc
# In short: as §1
# [22] = molecular target: Fuc(a1-3)[Gal(b1-4)]GlcNAc(b1-3)Gal(b1-3)[Fuc(a1-4)]GlcNAc
# In short: as §1
# [23] = molecular target: Fuc(a1-3)[Gal(b1-4)]GlcNAc(b1-3)Gal(b1-4)[Fuc(a1-3)]GlcNAc
# In short: as §1
# [24] = molecular target: Fuc(a1-3)[Gal(b1-4)]GlcNAc(b1-3)Gal(b1-4)[Fuc(a1-3)]GlcNAc(b1-3)Gal(b1-4)[Fuc(a1-3)]GlcNAc
# In short: as §1
# [25] = molecular target: Fuc(a1-3)[Gal(b1-4)]GlcNAc(b1-3)GalNAc
# In short: as §1
# [26] = molecular target: Fuc(a1-3)[Gal(b1-4)]GlcNAc(b1-6)GalNAc
# In short: as §1
# [27] = molecular target: Fuc(a1-3)[Gal(b1-4)]GlcNAc(b1-6)[Gal(b1-3)GlcNAc(b1-3)]Gal(b1-4)Glc
# In short: as §1
# [28] = molecular target: Fuc(a1-3)[Gal(b1-4)]GlcNAc6S
# In short: as §1
# [29] = molecular target: Fuc(a1-3)[Gal3S(b1-4)]Glc
# In short: as §1
# [30] = molecular target: Fuc(a1-3)[Gal3S(b1-4)]GlcNAc
# In short: as §1
# [31] = molecular target: Fuc(a1-3)[Gal3S(b1-4)]GlcNAc6S
# In short: as §1
# [32] = molecular target: Fuc(a1-3)[GalNAc(b1-4)]GlcNAc
# In short: as §1
# [33] = molecular target: Fuc(a1-3)[GalNAc(b1-4)]GlcNAc6S
# In short: as §1
# Fuc(a1-4)GlcNAc = molecular target: Fuc(a1-4)GlcNAc
# In short: as §1
# Fuc(b1-3)GlcNAc = molecular target: Fuc(b1-3)GlcNAc
# In short: as §1
# Gal(a1-2)Gal = molecular target: Gal(a1-2)Gal
# In short: as §1
# Gal(a1-3)Gal = molecular target: Gal(a1-3)Gal
# In short: as §1
# Gal(a1-3)Gal(b1-3)GlcNAc = molecular target: Gal(a1-3)Gal(b1-3)GlcNAc
# In short: as §1
# [34] = molecular target: Gal(a1-3)Gal(b1-3)GlcNAc(b1-2)Man
# In short: as §1
# [35] = molecular target: Gal(a1-3)Gal(b1-3)GlcNAc(b1-2)Man(a1-3)[Gal(a1-3)Gal(b1-3)GlcNAc(b1-2)Man(a1-6)]Man(b1-4)GlcNAc(b1-4)GlcNAc
# In short: as §1
# [36] = molecular target: Gal(a1-3)Gal(b1-3)GlcNAc(b1-3)GalNAc
# In short: as §1
# [37] = molecular target: Gal(a1-3)Gal(b1-3)GlcNAc(b1-6)GalNAc
# In short: as §1
# [38] = molecular target: Gal(a1-3)Gal(b1-3)[Fuc(a1-4)]GlcNAc(b1-2)Man(a1-3)[Gal(a1-3)Gal(b1-3)[Fuc(a1-4)]GlcNAc(b1-2)Man(a1-6)]Man(b1-4)GlcNAc(b1-4)GlcNAc
# In short: as §1
# Gal(a1-3)Gal(b1-4)Glc = molecular target: Gal(a1-3)Gal(b1-4)Glc
# In short: as §1
binder,measurement,setting,value
"LgFlo1 (Saccharomyces pastorianus), B3IUA8 (protein) SGSTQACLPVGSRKNGMNVNFYKYSLQDSTTYSDPQYMAYKYSDTKKLGSVSGQTHLSIYYGPNTAFWNTASWSSDLFGFYTTPTNVTVEMTGYFLPPQTGSYTFKFATVDDSAILSVGGSIAFECCAQEQPPITSTDFTINGIKPWDAATPTDIKGSTYMYAGYYYPIKIVYSNAKALARLPVSVVLPDGTEVNDDFEGYVYSFDDDLSQSNCTIPDPSKHTTS",glycan array binding signal (z-score),[1],-0.227
same,glycan array binding signal (z-score),[2],-0.33
same,glycan array binding signal (z-score),[3],-0.064
same,glycan array binding signal (z-score),[4],-0.337
same,glycan array binding signal (z-score),[5],-0.379
same,glycan array binding signal (z-score),[6],-0.075
same,glycan array binding signal (z-score),[7],0.204
same,glycan array binding signal (z-score),[8],-0.328
same,glycan array binding signal (z-score),[9],-0.234
same,glycan array binding signal (z-score),[10],-0.226
same,glycan array binding signal (z-score),[11],1.81
same,glycan array binding signal (z-score),[12],-0.114
same,glycan array binding signal (z-score),[13],0.711
same,glycan array binding signal (z-score),[14],-0.09
same,glycan array binding signal (z-score),[15],-0.156
same,glycan array binding signal (z-score),[16],-0.263
same,glycan array binding signal (z-score),Fuc(a1-3)GlcNAc,-0.276
same,glycan array binding signal (z-score),[17],-0.052
same,glycan array binding signal (z-score),[18],0.072
same,glycan array binding signal (z-score),[19],-0.224
same,glycan array binding signal (z-score),[20],-0.211
same,glycan array binding signal (z-score),[21],-0.108
same,glycan array binding signal (z-score),[22],-0.271
same,glycan array binding signal (z-score),[23],0.754
same,glycan array binding signal (z-score),[24],-0.157
same,glycan array binding signal (z-score),[25],-0.263
same,glycan array binding signal (z-score),[26],-0.202
same,glycan array binding signal (z-score),[27],-0.296
same,glycan array binding signal (z-score),[28],-0.17
same,glycan array binding signal (z-score),[29],-0.104
same,glycan array binding signal (z-score),[30],-0.201
same,glycan array binding signal (z-score),[31],0.042
same,glycan array binding signal (z-score),[32],-0.264
same,glycan array binding signal (z-score),[33],-0.382
same,glycan array binding signal (z-score),Fuc(a1-4)GlcNAc,1.75
same,glycan array binding signal (z-score),Fuc(b1-3)GlcNAc,0.111
same,glycan array binding signal (z-score),Gal(a1-2)Gal,-0.067
same,glycan array binding signal (z-score),Gal(a1-3)Gal,0.046
same,glycan array binding signal (z-score),Gal(a1-3)Gal(b1-3)GlcNAc,2.47
same,glycan array binding signal (z-score),[34],-0.127
same,glycan array binding signal (z-score),[35],0.576
same,glycan array binding signal (z-score),[36],-0.286
same,glycan array binding signal (z-score),[37],-0.259
same,glycan array binding signal (z-score),[38],0.35
same,glycan array binding signal (z-score),Gal(a1-3)Gal(b1-4)Glc,-0.306
